The other results are listed elsewhere or left out. These are noisy estimates, calculated here from bound and input reads.

For the experiment, the target named is T1, Pho4 (S. cerevisiae) (UniProt P07270).
T1 sequence: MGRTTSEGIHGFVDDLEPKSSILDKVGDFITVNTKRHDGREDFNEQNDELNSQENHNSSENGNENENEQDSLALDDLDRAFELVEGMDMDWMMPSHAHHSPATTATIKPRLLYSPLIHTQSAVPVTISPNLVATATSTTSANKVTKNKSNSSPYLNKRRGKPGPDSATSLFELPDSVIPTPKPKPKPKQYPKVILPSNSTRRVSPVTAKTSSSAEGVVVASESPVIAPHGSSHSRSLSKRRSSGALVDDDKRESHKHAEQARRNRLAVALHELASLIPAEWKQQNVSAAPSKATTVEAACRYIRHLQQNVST
As to the kind of experiment: relative binding free energy (BET-seq); higher = weaker binding. The settings on record: reference: library average.
Regarding CGTTTCACGTGGCTTA, the “relative binding free energy” value was found to be 0.17 kcal/mol. In the case of TTTCACACGTGTATGG, the “relative binding free energy” value is -0.02 kcal/mol. Next, GGTCGCACGTGTGGTT: 0.08 kcal/mol; TGGGTCACGTGTGATT: 0.28 kcal/mol; TGGGCCACGTGTTTGT: -0.25 kcal/mol. Turning to TAGTTCACGTGTATAA, the “relative binding free energy” value came out at 0.22 kcal/mol. On to GGTTTCACGTGCCGTG, for which the “relative binding free energy” value amounted to 0.35 kcal/mol. Next, CGCGTCACGTGTGGGA: -0.02 kcal/mol; TATATCACGTGAATAT: 0.35 kcal/mol. The value for GATCTCACGTGTTGAT was 0.35 kcal/mol.

Turning to CGTGGCACGTGTGTTC, the “relative binding free energy” value was -0.21 kcal/mol. Next, TATGACACGTGTCTGT: -0.01 kcal/mol; GCTAGCACGTGGGGTG: -0.19 kcal/mol. The value for ATAGTCACGTGGTCGT was -0.07 kcal/mol; that for AAGGGCACGTGGTATA was -0.17 kcal/mol. Next, GTTTTCACGTGTTACT: 0.46 kcal/mol; ATCTGCACGTGTTGCT: 0.08 kcal/mol; GAGTTCACGTGAGGTG: 0.5 kcal/mol. For the sequence AATGGCACGTGTGTGT, the “relative binding free energy” value was -0.11 kcal/mol.

As to TAGTTCACGTGTTTCG, the “relative binding free energy” value turned out to be 0.28 kcal/mol. Next, GGGTTCACGTGGTCAG: 0.26 kcal/mol. The value for TGGATCACGTGTGCGG was 0.18 kcal/mol; that for GGGCGCACGTGAAATG was 0.17 kcal/mol; that for GGAGGCACGTGTGCAA was 0.01 kcal/mol. In the case of ATTTACACGTGGGGCG, the “relative binding free energy” value is -0.02 kcal/mol.

For TGGCACACGTGGTCTG, the “relative binding free energy” value came out at 0 kcal/mol.

For TAAGACACGTGGGTCT, the “relative binding free energy” value is -0.11 kcal/mol.

Consider TAAAGCACGTGGGAAG, for which the “relative binding free energy” value was -0.18 kcal/mol. Next, CGGCTCACGTGGTAGG: 0.07 kcal/mol.

For TATAGCACGTGGGTAC, the “relative binding free energy” value is -0.23 kcal/mol. The value for ATAAGCACGTGGTATG was -0.21 kcal/mol; that for GTAGTCACGTGTAGTA was 0.13 kcal/mol. The value for TGGTTCACGTGCAAGA was 0.28 kcal/mol; that for GAGGTCACGTGCTAGT was 0.09 kcal/mol.

For the sequence TGACTCACGTGTGTGA, the “relative binding free energy” value was determined as 0.27 kcal/mol. The value for TGGGTCACGTGGACGT was 0.09 kcal/mol; that for TCTTGCACGTGGCGGG was 0.06 kcal/mol; that for TTGGACACGTGCGGTG was 0.01 kcal/mol. Next, TGATTCACGTGAGATT: 0.46 kcal/mol. Next, GAGATCACGTGTTGGT: 0.28 kcal/mol; CTCAGCACGTGGTTGG: -0.09 kcal/mol. With GGTTACACGTGGGGTT, the “relative binding free energy” value stood at 0.06 kcal/mol.

In the case of CGCAGCACGTGGGGTT, the “relative binding free energy” value was -0.22 kcal/mol. Consider TGCCGCACGTGTGAGT, for which the “relative binding free energy” value was found to be 0.02 kcal/mol. The value for ATTGGCACGTGGGAAC was -0.04 kcal/mol; that for TATATCACGTGTAGAA was 0.19 kcal/mol; that for GTGGACACGTGCGTTA was 0.07 kcal/mol. The value for GTAGACACGTGTAGGA was 0.15 kcal/mol; that for TTATGCACGTGGGGCT was -0.11 kcal/mol; that for ATGTTCACGTGTAACT was 0.26 kcal/mol. The value for AGTGGCACGTGGCTCG was -0.23 kcal/mol; that for TATGACACGTGTGGGG was 0.1 kcal/mol. As for ACTTGCACGTGAGTTG, the “relative binding free energy” value was 0.14 kcal/mol.

Regarding TAAATCACGTGTGTTC, the “relative binding free energy” value is 0.2 kcal/mol. Next, GGGAACACGTGCGTTG: -0.07 kcal/mol; AGCTTCACGTGGTCGG: 0.12 kcal/mol. The value for GGTGCCACGTGGGAGC was -0.16 kcal/mol; that for TACATCACGTGGGTTT was 0.05 kcal/mol; that for CAGGCCACGTGGGGGT was -0.28 kcal/mol. The value for TACGGCACGTGATTGG was -0.02 kcal/mol.

For the sequence GGAAACACGTGCAGGG, the “relative binding free energy” value came out at 0.01 kcal/mol. The value for TTGGACACGTGATTTG was 0.21 kcal/mol. The value for GGATTCACGTGTGAGT was 0.37 kcal/mol; that for GTAGACACGTGTGGCT was 0.12 kcal/mol. For ATGGCCACGTGGTTCT, the “relative binding free energy” value is -0.12 kcal/mol.

Take CGTTGCACGTGTGGGC: the “relative binding free energy” value amounted to 0.17 kcal/mol. Consider TTTGACACGTGGAGAT, for which the “relative binding free energy” value was -0.08 kcal/mol. On to TGTCTCACGTGGGGAC, for which the “relative binding free energy” value came out at 0.1 kcal/mol. Next, GGACTCACGTGCGGTG: 0.15 kcal/mol; AGTGCCACGTGTCGGG: -0.06 kcal/mol; ATGTGCACGTGGTCTG: -0.12 kcal/mol. On to GTCTGCACGTGATTGG, for which the “relative binding free energy” value came out at 0.18 kcal/mol.

Take ATACTCACGTGGTATG: the “relative binding free energy” value amounted to 0.11 kcal/mol.

Take TGTTACACGTGGTAGC: the “relative binding free energy” value is -0.06 kcal/mol.

For the sequence AGGGCCACGTGCTGGG, the “relative binding free energy” value was -0.27 kcal/mol. For ATGGTCACGTGTACAG, the “relative binding free energy” value turned out to be 0.1 kcal/mol.

In the case of GTGCTCACGTGTTATT, the “relative binding free energy” value is 0.22 kcal/mol. The value for ATTTTCACGTGGGCGT was 0.15 kcal/mol; that for GCAGCCACGTGTGTGG was 0.02 kcal/mol; that for ATTATCACGTGGAGGA was 0.16 kcal/mol.

AGTGACACGTGTTATG: the “relative binding free energy” value worked out at 0 kcal/mol. For the sequence TTTCGCACGTGCGGGA, the “relative binding free energy” value is -0.1 kcal/mol. The value for CAATGCACGTGTTGTA was -0.03 kcal/mol; that for AGATACACGTGTGGAG was 0.11 kcal/mol; that for TTATACACGTGGTGAG was 0.06 kcal/mol. Next, TGGAGCACGTGCCAGG: -0.1 kcal/mol. The value for GTATGCACGTGCCGGG was -0.06 kcal/mol.

Turning to GCGGTCACGTGAGTGG, the “relative binding free energy” value was 0.38 kcal/mol. Take TCAGACACGTGGTATT: the “relative binding free energy” value stood at 0.06 kcal/mol. The value for TAATACACGTGAGGTA was 0.15 kcal/mol; that for GAGGACACGTGATTAG was 0.28 kcal/mol. The value for GATGTCACGTGGCGGG was 0.08 kcal/mol; that for ATGGCCACGTGGGCTT was -0.15 kcal/mol. The value for GGACTCACGTGAGTTT was 0.48 kcal/mol; that for TGGGTCACGTGATTTA was 0.21 kcal/mol; that for GGAGTCACGTGTGCTA was 0.21 kcal/mol. With ATAGGCACGTGTTAGT, the “relative binding free energy” value was -0.09 kcal/mol. Next, TGGTACACGTGTAAGA: 0.19 kcal/mol; CGGAGCACGTGGGGCG: -0.27 kcal/mol; GTTTGCACGTGTGAGC: 0.14 kcal/mol. Next, TTATTCACGTGTAACG: 0.29 kcal/mol; AGAGTCACGTGGGTAT: 0.12 kcal/mol. Next, CGTGCCACGTGTGAGG: -0.09 kcal/mol; GTAAACACGTGGGTTA: -0.02 kcal/mol; AAAGGCACGTGCTGGG: -0.11 kcal/mol. As for ATATTCACGTGTGGTA, the “relative binding free energy” value is 0.3 kcal/mol. Next, TTATTCACGTGTATCT: 0.22 kcal/mol; TTAGCCACGTGTAGTA: -0.04 kcal/mol. The value for AAGGGCACGTGTGCGG was -0.13 kcal/mol; that for AAGTGCACGTGAGGTT was 0.2 kcal/mol; that for GCGATCACGTGTAAGG was 0.3 kcal/mol. The value for AGAGACACGTGGTAGT was -0.01 kcal/mol; that for GTTTTCACGTGAGGAG was 0.33 kcal/mol.

With GTTGTCACGTGGTTGC, the “relative binding free energy” value was determined as 0.16 kcal/mol. On to GTGTTCACGTGTTGGC, for which the “relative binding free energy” value came to 0.39 kcal/mol.
